Here are results for 25 compounds from PubChem BioAssay AID463173 (ICCB-Longwood Screening Facility, Harvard Medical School, 2010).

Molecules are shown by their SMILES. The whole screen tested about 52,000 compounds, of which about 4,300 (8.3%) were called active. Rule as the data show it: active = survival mostly below about 52% (no sharp cut-off); inactive = mostly above about 56%. This is one part of the list.

The test system of this assay is DeltatarO mutant. Kind of assay: S. aureus survival, RN4220 and DeltatarO strains – OD600, teichoic acid synthesis inhibitors, primary screen (AID 463173). The settings on record: S. aureus RN4220 wild type/DeltatarO growth, OD600, 18 h, active compounds read low, screened at 18.75 µg/mL (by protocol).
As for `Cc1ccc(S(=O)(=O)c2c(Nc3cccc(Cl)c3)sc(C(=O)c3ccc4c(c3)OCO4)c2N)cc1`, the survival was inactive: 90%.

With `CCOc1ccc(NC(=O)CSC2=Nc3ccccc3C3=NC(CC(=O)NCc4ccc5c(c4)OCO5)C(=O)N23)cc1` (stereo not given), the survival is inactive: 116%.

Consider `O=C(OCc1cc(=O)n2c3c(sc2n1)CCCC3)c1cccc(NC(=O)c2ccccc2F)c1`, for which the survival was inactive: 115%.

With `COc1ccc(-c2nc3ccccc3n2Cc2ccc(Cl)cc2)cc1`, the survival was active: 6%.

`COc1cc(C)ccc1OCCSc1nnc(-c2ccc(C)cc2)o1`: the survival was inactive: 55%.

As to `Cc1ccc(-c2ccc(=O)n(CC(=O)Nc3ccc(F)c(Cl)c3)n2)cc1C`, the survival is inactive: 82%.

With `COc1cccc(NC(=O)CSC2=Nc3ccccc3C3=NC(CCC(=O)NCc4ccco4)C(=O)N23)c1` (stereo not given), the survival was inactive: 73%.

Take `CCN(c1ccccc1)S(C)(=O)=O`: the survival is inactive: 96%.

With `COc1ccc(-c2nc(CNS(=O)(=O)c3ccc(C)cc3)cs2)cc1`, the survival was inactive: 90%.

Turning to `COc1ccccc1C(=O)Nc1nnc(S(=O)(=O)N2CCCCCC2)s1`, the survival was active: 56%.

For the compound `CCOc1ccccc1C(=O)Nc1ccc(S(=O)(=O)N2CCCCC2c2cccnc2)cc1` (stereo not given), the survival is inactive: 122%.

`Cc1ccc(S(=O)(=O)NCc2ccc(/C=C(/C#N)C(=O)NC3CCCCC3)o2)cc1`: the survival is inactive: 71%.

As for `COc1ccc(S(=O)(=O)N2c3cc(F)ccc3CCC2C)cc1OC` (stereo not given), the survival is inactive: 89%.

As to `CCc1ccc(-c2nnn(Cc3nn[nH]n3)n2)cc1`, the survival was inactive: 74%.

On to `Cc1ccc(-c2cc(C(=O)N(Cc3ccccc3)Cc3ccco3)no2)cc1F`, for which the survival was inactive: 49%.

For `O=C(NCCO)Nc1c[nH]c2c(Cl)cccc2c1=O`, the survival is inactive: 95%.

Turning to `Cn1c(C2CC2)n[nH]c1=S`, the survival was inactive: 96%.

Turning to `COc1ccc(-c2noc(CN3CCN(c4ccccc4OC)CC3)n2)cc1OC`, the survival was inactive: 85%.

As for `Cc1ccc(C(=O)COC(=O)c2cc(-c3ccc(Cl)cc3)nc3ccccc23)cc1`, the survival was inactive: 136%.

With `CCc1cccc2c(C=C(C#N)C#N)cn(CC(=O)NC3CCCC3)c12`, the survival was inactive: 77%.

With `CC1CCN(C(=O)CN(c2ccccc2)S(C)(=O)=O)CC1`, the survival was inactive: 99%.

For the compound `CCCCN(CC)C(=O)Nc1ccc2c(c1)N(C)C(=O)c1ccccc1S2`, the survival is inactive: 89%.

For the compound `COc1ccc(C(=O)N2CCc3cc(OC)c(OC)cc3C2COc2ccccc2OC)cc1` (stereo not given), the survival is inactive: 89%.

As for `COC(=O)c1c(C)sc(-c2c(-c3cccc(OC)c3)[nH]c3c2c(=O)[nH]c(=O)n3C)c1O`, the survival was active: 43%.

Take `CC(=O)Nc1ccc(S(=O)(=O)NC2(C(F)(F)F)NC(=O)N(c3ccc(Cl)cc3)C2=O)cc1` (stereo not given): the survival was inactive: 81%.
